Literature values in patent publication US8623416B2 (priority 2009, dated 2014).

Tested on: HIV
Details: cited from earlier work

## CC[C@H]1C(=O)Nc2ccc(F)cc2N1C(=O)OC(C)C [GW420867X]
  greater activity than HBY097: 25 fold
